Data: the BET-seq Pho4 binding data (Le et al. 2018)
This is one part of the list. Values were computed here from the reads of four pooled replicates and scatter widely.

Biological target: T1, Pho4 (S. cerevisiae) (UniProt P07270)
T1 sequence: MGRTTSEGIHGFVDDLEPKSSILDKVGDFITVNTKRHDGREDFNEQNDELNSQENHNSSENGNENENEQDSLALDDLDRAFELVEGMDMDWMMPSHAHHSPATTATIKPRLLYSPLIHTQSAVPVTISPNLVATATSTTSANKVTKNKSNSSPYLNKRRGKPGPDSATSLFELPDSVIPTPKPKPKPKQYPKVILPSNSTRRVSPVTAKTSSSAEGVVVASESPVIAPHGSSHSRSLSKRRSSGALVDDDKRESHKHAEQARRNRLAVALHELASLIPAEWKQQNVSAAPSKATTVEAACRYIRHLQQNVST
Assay: relative binding free energy (BET-seq); higher = weaker binding
Details: reference: library average

Sequence | relative binding free energy [kcal/mol]
CGATACACGTGTTGTA | 0.14
GGGGTCACGTGGAAGC | 0.3
GGGATCACGTGGGATG | 0.09
ATTTTCACGTGAGACG | 0.34
TATGTCACGTGCGCGT | -0.23
AGTGCCACGTGGTATA | -0.2
CGGTTCACGTGGTTAA | 0.15
ACGGTCACGTGTAAGG | 0.29
GGAAACACGTGGAGAG | 0.11
CGTATCACGTGAATGT | 0.3
TGTTGCACGTGTGAGA | 0
CAATGCACGTGGGGGG | -0.2
TGGGACACGTGCGTAA | -0.07
ACGTGCACGTGCGGGT | -0.25
AAGTACACGTGGGCGG | -0.1
TACGCCACGTGTGGTG | -0.11
TATGACACGTGGGAAA | 0.06
AAAGGCACGTGGCGGT | -0.33
TCGATCACGTGTGTAG | 0.13
AGGACCACGTGGGGTA | -0.22
GGGTACACGTGAGGCT | 0.33
GCGGCCACGTGTTAGT | 0.05
ATTGACACGTGTGTGC | -0.02

Sequence | relative binding free energy [kcal/mol]
TAGGCCACGTGAGGTG | 0.04
GTGAACACGTGTGATA | 0.08
ATCGGCACGTGGTGCG | -0.31
GATGTCACGTGTTGAT | 0.24
TTACACACGTGGGTTA | -0.17
AGTGGCACGTGAAATA | 0.01
GTTTTCACGTGCGGGT | 0.44
GAGTACACGTGGGGTG | -0.05
AACGTCACGTGTGGGG | 0.16
GAGGTCACGTGGGGGT | 0.05
CTAAGCACGTGTAGGG | -0.22
GGAAACACGTGGGGAA | -0.07
GCTTTCACGTGTTGGA | 0.2
TTGTGCACGTGTAAGC | 0.15
TGGTTCACGTGAGAAG | 0.37
TTTGTCACGTGATGTG | 0.3
GGGCACACGTGTGTGA | 0.12
TCTTGCACGTGTCTGT | -0.08
TTGGCCACGTGAGTAG | 0.11
AACATCACGTGGGTTG | -0.05
AGAGACACGTGAGGGA | 0.24
AAGTTCACGTGTGGGT | 0.23
ACGGTCACGTGAAGGG | 0.26

Sequence | relative binding free energy [kcal/mol]
TAGCGCACGTGGTTGA | -0.17
GTTGACACGTGGGTGG | 0.03
ATAGACACGTGGGTGG | -0.17
TCCTTCACGTGTTTGT | 0.12
GATCGCACGTGAGGGG | 0.2
AGCTTCACGTGGGGGT | 0.09
TTGTACACGTGAGGAA | 0.32
GATAACACGTGATTGT | 0.3
GGGATCACGTGGCGGG | 0.15
TATTACACGTGGGGGA | 0.04
AAGTTCACGTGAGGGC | 0.38
GGTCTCACGTGTTGCG | 0.3
GAGGGCACGTGGTCTT | -0.26
GTGGTCACGTGTACTA | 0.18
TCGATCACGTGCGGGG | 0.03
CTCTGCACGTGTGTGG | 0.01
GGAGGCACGTGGTGGG | -0.15
CGTTGCACGTGTTTAA | 0.01
TTTATCACGTGCTTAG | 0.13
GGTAGCACGTGCATTG | -0.09
ATGCTCACGTGTTAGT | 0.18
AGTGTCACGTGTTTTA | 0.04
AGGTACACGTGTTGAG | 0.14

Sequence | relative binding free energy [kcal/mol]
ATATTCACGTGCGGGT | 0.16
ATGGCCACGTGGTTTG | -0.16
GATAGCACGTGGGATG | -0.07
CGCGTCACGTGAGGGC | 0.28
ATAGACACGTGAGTAT | 0.18
TTTATCACGTGTGTCG | 0.18
TATGGCACGTGGTCGA | -0.2
CCAGACACGTGGGGGT | -0.14
TGGGGCACGTGTCAAA | -0.07
CTAGTCACGTGTGTTA | 0.01
GGGAACACGTGGATTG | 0.14
GAAGGCACGTGTGGAG | 0
ATGATCACGTGATGCT | 0.22
TGTTACACGTGTGAAG | 0.08
TCTTGCACGTGGTGAC | 0.06
GTCATCACGTGTGGTA | 0.19
CGGTGCACGTGGCTAG | -0.1
GTAGGCACGTGTTTCT | -0.07
CGAGTCACGTGGTGCT | 0.04
AAGTGCACGTGAGGTG | 0.27
GATTGCACGTGTGCGC | 0.09
ATAGTCACGTGCGGAG | 0.1
TGGTGCACGTGGATGC | -0.03

Sequence | relative binding free energy [kcal/mol]
GAGTGCACGTGGATAG | 0.08
AGATTCACGTGTGAAT | 0.26
GCTTACACGTGGTATG | 0.12
GACGGCACGTGTGGCA | 0.1
CGGTTCACGTGGACGG | 0.29
AGTAGCACGTGATGAA | 0.08
GGATGCACGTGGATGT | 0.02
TTCGACACGTGGGTAT | -0.17
GAGTGCACGTGTCGGT | 0.19
AAAGGCACGTGGGGGA | -0.21
TAGGGCACGTGGTGAT | -0.11
GTGGGCACGTGAGAGC | 0.22
TGAGTCACGTGTCGTA | 0.2
ATGGACACGTGAAGGA | 0.22
CGGGGCACGTGGAAAT | 0.18
GTGGCCACGTGGAGGT | 0
TTTGACACGTGCGATT | -0.1
GGGTGCACGTGAAGCC | 0.36
TGTATCACGTGGGACG | 0
CAAGGCACGTGTTGTT | -0.23
GGAAGCACGTGCGGGT | -0.14
TGGGTCACGTGAAATA | 0.47
GTTTCCACGTGTGTTT | 0.25
